Out of some 410,000 compounds screened, about 7,200 (1.8%) were called active. The inconclusive results got no clear call from the source; some entries with a clear call stand among them for comparison. The call rests on the fitted dose curve; in most records, active means well fitted activation curve with a large enough effect; inconclusive means small, poorly fitted or top-dose-only effect, or another doubt; inactive means no such curve, though single readings can be large or run the other way. No potency is given beside an inconclusive call; the fits are too rough. More than one record can exist for a structure, and the calls need not agree.
Test: qHTS of TDP-43 Inhibitors; further: nearly all actives have a fitted effect of over 50% in size; on growth rescue (activation): % of control where 0% means no effect
Details: TDP-43 expressing yeast growth rescue, BacTiter-Glo, 24 h; growth rescue (activation): at 46.1 µM (top of the series) unless noted
How it was run: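 Growth rescue of TDP-43-toxic yeast measured as ATP luminescence (BacTiter-Glo). Cells grown to mid-log in raffinose, induced in galactose at OD600=0.02, exposed to compound 24 hr at 30 deg C.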
In the case of `c1cncc(-c2nc(N3CCOCC3)c3c4c(sc3n2)CCC4)c1`, the Potency is reported as inconclusive [activator, partial curve]. In the case of `O=C(CSCc1ccccc1)Nc1cc([N+](=O)[O-])ccc1F`, the Potency is reported as active: 11.2 µM. For `COc1cccc(NC(=S)NC(Cc2ccccc2)c2ccccc2)c1` (centres undefined), the Potency was active: 11.2 µM. With `CC(C)C[C@H]1CNC(=S)N1C[C@H]1CCCN1C[C@H](Cc1ccc(O)cc1)N1C[C@H](Cc2ccc(O)cc2)N(CC2CCCCCC2)C1=S` the Potency was inconclusive [activator, single point]. With `CN(O)/C=N/C(=S)Nc1ccc(Cl)cc1Cl` the Potency was inconclusive [activator, single point]. In the case of `COc1ccc(-c2nnc(SCC(=O)NCc3cccs3)n2C)cc1`, the “growth rescue (activation)” value is reported as inactive: -24.3%. With `CC1CCN(C(=O)c2ccc(S(=O)(=O)Cc3cccc(F)c3)c([N+](=O)[O-])c2)CC1` the Potency was inconclusive [activator, partial curve]. For `CCc1nc2ccc(C(=O)N3CCN(c4cc(C)ccc4C)CC3)cc2nc1CC`, the Potency was inconclusive [activator, full curve, poor fit]. In the case of `CC1=C(c2ccc(C)c(C)c2)S(=O)(=O)N=C1N1CCC(C(=O)NCc2ccccc2C)CC1`, the Potency is reported as inconclusive [activator, partial curve, poor fit]. In the case of `Cc1cccc(-n2ncc(Cl)c(Cl)c2=O)c1`, the Potency is reported as inconclusive [activator, single point]. In the case of `O=C(Nc1nc2ccccc2s1)c1c(F)cccc1Cl`, the Potency is reported as inconclusive [activator, full curve]. For `O=C(/C=C/c1ccco1)c1cccc([N+](=O)[O-])c1`, the Potency was inconclusive [activator, single point]. With `COc1ccc(/C=N/NC(=O)C(=O)N2CCN(c3ccccc3OC)CC2)cc1` the “growth rescue (activation)” value was inactive: -6.29%. In the case of `CCC(Oc1ccccc1F)C(=O)Nc1ccc2c(c1)n(C)c(=O)n2C` (centres undefined), the Potency is reported as inconclusive [activator, partial curve]. For `O=C(O)C/C(=C\c1cc(Cl)c2c(c1)OCO2)c1nc2ccccc2s1`, the Potency was inconclusive [activator, single point]. In the case of `CSc1ccccc1NC(=O)c1csc(C)c1`, the Potency is reported as inconclusive [activator, partial curve, poor fit]. For `Cc1ccc(C)c(-n2ccnc2SCC(=O)O)c1`, the “growth rescue (activation)” value was inactive: 3.47%. For `Cc1ccc(/C(N)=N/OC(=O)Cc2cccs2)cc1`, the Potency was inconclusive [activator, single point]. With `COc1ccc2nc(-c3ccccc3)cc(C(=O)OCC(=O)N3CC(C)OC(C)C3)c2c1` (centres undefined) the Potency was active: 22.4 µM. With `Cn1c(SCc2nc(-c3ccc(Br)cc3)no2)nnc1-c1ccco1` the “growth rescue (activation)” value was inactive: 0%. For `COCCCN=Cc1c(C)[nH]n(-c2ccc(Br)c(C)c2)c1=O`, the Potency was inconclusive [activator, partial curve]. In the case of `Cc1cc(Cl)ccc1OCC(=O)N1CCC(c2nc3ccccc3s2)CC1`, the Potency is reported as inconclusive [activator, single point]. In the case of `COc1ccc(CNC(=O)Nc2cn(CC(C)C)c(=O)c3ccccc23)cc1`, the “growth rescue (activation)” value is reported as inactive: 9.44%. For `CC(C)NC(=O)c1ccc(Sc2ccccc2)c([N+](=O)[O-])c1`, the “growth rescue (activation)” value was inactive: -0.383%. With `COc1ccc(-c2sc3ccccc3c2-c2ccc(OC)cc2F)cc1` the Potency was inconclusive [activator, partial curve]. In the case of `O=C(Nc1ccc(Cc2ccncc2)cc1)c1ccco1`, the “growth rescue (activation)” value is reported as inactive: -12.1%. With `Cc1nnc(SCc2ccc(F)cc2Cl)s1` the Potency was inconclusive [activator, single point]. In the case of `COc1ccccc1C(=O)Nc1c(C(=O)Nc2ccccc2F)oc2ccccc12`, the “growth rescue (activation)” value is reported as inactive: 10.5%. For `COC(=O)c1cc(C)nc2c1c(=O)nc(SCc1ccccc1C)n2C1CC1`, the Potency was inconclusive [activator, single point]. For `C=C(C)Cn1c(=S)[nH]c2ccccc2c1=O`, the Potency was active: 12.6 µM. For `Cn1c(NCc2ccco2)nc2ccccc21`, the “growth rescue (activation)” value was inactive: -8.02%. For `Cc1cccc(NC(=O)C(Cc2ccccc2)NS(=O)(=O)c2ccc3c(c2)c(=O)n(C)c(=O)n3C)c1` (centres undefined), the “growth rescue (activation)” value was inactive: -7.85%. In the case of `Cc1nc(N2CCCCC2)sc1C(=O)c1cccc([N+](=O)[O-])c1`, the Potency is reported as inconclusive [activator, single point]. For `Cc1cc(NC(=O)CCC(=O)N(c2ccccc2F)C(C(=O)NC2CCCC2)c2ccccc2)no1` (centres undefined), the “growth rescue (activation)” value was inactive: -6.34%. In the case of `Cc1ccc(-c2nn(-c3ccccc3)cc2CO)cc1`, the Potency is reported as inconclusive [activator, partial curve, poor fit]. In the case of `Cc1ccc(-c2nc(C(=O)NCc3ccccc3Cl)c3n2CCCCC3)cc1`, the Potency is reported as active: 35.5 µM. In the case of `COC(=O)c1sccc1NC(=O)c1cc(-c2ccc(C)cc2C)nc2ccccc12`, the “growth rescue (activation)” value is reported as inactive: -0.261%. For `O=C(CCCn1c(=S)[nH]c2ccccc2c1=O)N1CCCCC1`, the “growth rescue (activation)” value was inactive: 0.657%. For `O=C(Nc1nc(OCCN2CCCC2=O)cnc1/C=C\c1ccccc1)c1cc2ccccc2s1`, the “growth rescue (activation)” value was inactive: 18.9%. With `CC1CC(NC(=S)N(C)C)CC(C)(C)C1` (centres undefined) the Potency was inconclusive [activator, partial curve, poor fit]. With `COC(=O)C1(Cc2cc(-c3ccccc3)no2)CCN(C(=O)OC(C)(C)C)CC1` the Potency was inconclusive [activator, partial curve]. With `COc1cccc(NC(=O)CSc2nc(-c3ccccc3Cl)nc3c2Cc2c(CO)cnc(C)c2O3)c1` the “growth rescue (activation)” value was inactive: -14.2%. For `CCN1C(=O)/C(=C\c2nc3ccccc3c(=O)n2CC)c2ccccc21`, the Potency was active: 12.6 µM. With `CCOc1ccc(S(=O)(=O)Nc2ccccc2C(=O)NCC2CCCO2)cc1` (centres undefined) the “growth rescue (activation)” value was inactive: -5.55%. With `Cc1ccc(S(=O)Cc2nc(-c3ccc(C(=O)NCc4cccc(C)c4)cc3)oc2C)cc1` (centres undefined) the “growth rescue (activation)” value was inactive: -15.6%. With `COc1ccc(-c2nc(C)sc2C)cc1` the Potency was inconclusive [activator, full curve]. For `CC(=O)Nc1c(C)nn(-c2ccccc2)c1N1CCC(C(=O)NCc2ccccc2Cl)CC1`, the Potency was inconclusive [activator, full curve, poor fit]. For `CC(O)(c1cccc(F)c1)c1nc(-c2cnc3ccccc3c2)cs1` (centres undefined), the Potency was inconclusive [activator, single point]. In the case of `Cc1cccc(N(CC(O)CON=C2c3ccccc3-c3ccccc32)S(C)(=O)=O)c1` (centres undefined), the Potency is reported as inconclusive [activator, single point]. With `O=C(NCc1noc2ccccc12)N1CCN(c2ccccc2)CC1` the Potency was inconclusive [activator, partial curve]. With `COc1ccccc1-c1sc2ccccc2c1-c1ccc(OCCN2CCOCC2)cc1` the “growth rescue (activation)” value was inactive: 19.7%. For `COc1ccc([C@H]2CC(=O)C=C(c3ccc(C)c4ccccc34)C2)cc1`, the Potency was inconclusive [activator, partial curve]. With `O=S(=O)(c1ccc2c(c1)OCCO2)N1CCC(O)(c2ccc(Cl)cc2)CC1` the Potency was inconclusive [activator, single point]. In the case of `Cc1nn(C)c(C)c1Sc1ccc(Br)cc1`, the Potency is reported as inconclusive [activator, single point]. In the case of `O=C(Nc1cccc(C(F)(F)F)c1)c1cccnc1N1CCN(c2ccccc2)CC1`, the Potency is reported as inconclusive [activator, single point]. For `COc1ccc(OC)c(C2=NS(=O)(=O)N(C)C(C(=O)Nc3ccc(F)cc3F)=C2)c1`, the Potency was active: 35.5 µM. In the case of `COc1ccc2oc(=N)c(C(=O)NCc3ccccc3)cc2c1`, the Potency is reported as inconclusive [activator, partial curve]. For `OC(c1ccccc1)c1nc(-c2csc3ccccc23)cs1` (centres undefined), the Potency was inconclusive [activator, single point]. With `O=C(CCNC(=O)c1ccccc1Cl)Nc1nc(-c2ccccc2Cl)cs1` the Potency was inconclusive [activator, single point]. In the case of `COc1ccc(N2CCN(C(=O)C3CCCN(S(=O)(=O)c4cccc5cccnc45)C3)CC2)cc1` (centres undefined), the Potency is reported as inconclusive [activator, single point]. For `CN(CC(=O)Nc1ccccc1C(F)(F)F)C(=O)C1=COCCO1`, the Potency was inconclusive [activator, full curve]. With `CC1=CC(C)(C)NC(=S)N1c1cc(C)cc(C)c1` the Potency was inconclusive [activator, partial curve, poor fit]. For `O=C(NCc1ccco1)c1ccc(N2CCCCC2)c([N+](=O)[O-])c1`, the Potency was inconclusive [activator, partial curve]. For `O=c1[nH][nH]c2c1[C@@H](c1ccc(F)cc1)O[C@H](CCOCc1ccccc1)C2`, the Potency was inconclusive [activator, partial curve]. For `CCOc1ccc(-c2cc3nc(C4CCN(C(=O)OC(C)(C)C)CC4)c(C(=O)Nc4cc(OC)ccc4OC)cn3n2)cc1`, the Potency was inconclusive [activator, partial curve, poor fit]. In the case of `CCN1CCOC(=O)C1CC(=O)Nc1ccc(Br)cc1` (centres undefined), the growth rescue (activation) is reported as inconclusive: -91.7% [activator]. With `CC1C(=O)N(Cc2cn(Cc3ccco3)nn2)CCS(=O)(=O)N1Cc1ccc(-c2ccccc2C(F)(F)F)cc1` (centres undefined) the Potency was inconclusive [activator, partial curve]. With `COc1ccccc1NC(=S)NCc1ccc(Cl)cc1` the Potency was inconclusive [activator, partial curve]. For `O=C(C1COc2ccccc2O1)N1CCN(c2nc3ccc([N+](=O)[O-])cc3s2)CC1` (centres undefined), the Potency was inconclusive [activator, single point].

— PubChem BioAssay AID652104 (National Center for Advancing Translational Sciences (NCATS), 2013)
Potency means the concentration at half of the fitted maximal effect; tags describe the fitted curve by direction and shape.
